# Measured values reported in PMC11995724, “Antibiotic target discovery by integrated phenotypic and activity-based profiling of electrophilic fragments” (Cell chemical biology, 2025).
# Among all 3,200 compounds or so, about 75 (2%) showed an effect of 50% or more. The list shows a part of the results.
# System: T1, S. aureus MSSA476
# T1 construct: MSSA476
# Set-up: species or system S. aureus MSSA476 (TSB) or V. cholerae SAD30 (LB); 384-well bacterial growth screen at 25 uM, OD600 relative to DMSO control
# Settings: relative growth, OD600, TSB; 25 µM; inhibitor
row,Compound,% of control remaining [%]
1,"C=CC(=O)N1CCn2cccc2C12COC2 [1-K09, 1-{3',4'-dihydro-2'H-spiro[oxetane-3,1'-pyrrolo[1,2-a]pyrazin]-2'-yl}prop-2-en-1-one]",107.253
2,"CN(CC(=O)NCc1ccco1)C(=O)CCl [4-A18, 2-chloro-N-({[(furan-2-yl)methyl]carbamoyl}methyl)-N-methylacetamide]",130.729
3,"CC(CC#N)Sc1ccccc1NC(=O)CCl (centres unmarked) [5-F14, 2-chloro-N-{2-[(1-cyanopropan-2-yl)sulfanyl]phenyl}acetamide]",112.204
4,"CC(Cl)C(=O)NCc1ncn(Cc2cccc(F)c2)n1 (centres unmarked) [7-K03, 2-chloro-N-({1-[(3-fluorophenyl)methyl]-1H-1,2,4-triazol-3-yl}methyl)propanamide]",114.286
5,"COc1ccc(CN2CCN(C(=O)CCl)CC2)cc1F.Cl [4-P18, 2-chloro-1-{4-[(3-fluoro-4-methoxyphenyl)methyl]piperazin-1-yl}ethan-1-one hydrochloride]",106.336
6,"CN(CCC1CCCCC1)C(=O)CCl [5-A06, 2-chloro-N-(2-cyclohexylethyl)-N-methylacetamide]",90.7104
7,"O=C(CCl)N1CCCC1c1nc(Cc2ccc(F)cc2)no1 (centres unmarked) [5-M10, 2-chloro-1-(2-{3-[(4-fluorophenyl)methyl]-1,2,4-oxadiazol-5-yl}pyrrolidin-1-yl)ethan-1-one]",85.9745
8,"O=C(CCl)c1c[nH]c(C(=O)N2CCCC2)c1 [10-A16, 2-chloro-1-[5-(pyrrolidine-1-carbonyl)-1H-pyrrol-3-yl]ethan-1-one]",115
9,"C=CC(=O)NCC1CCCC(C2CC2)O1 (centres unmarked) [1-M17, N-[(6-cyclopropyloxan-2-yl)methyl]prop-2-enamide]",124.835
10,"Cc1ccc(CNC(=O)C(C)Cl)cc1 (centres unmarked) [5-O03, 2-chloro-N-[(4-methylphenyl)methyl]propanamide]",106.74
11,"Cc1cc(C(=O)CCl)c(C)n1-c1cccc([N+](=O)[O-])c1 [10-B16, 2-chloro-1-[2,5-dimethyl-1-(3-nitrophenyl)-1H-pyrrol-3-yl]ethan-1-one]",136.563
12,"N#CC(=Cc1ccc(-c2ccccc2F)o1)C(=O)NCc1ccccc1 [9-H10, N-benzyl-2-cyano-3-[5-(2-fluorophenyl)furan-2-yl]prop-2-enamide]",112.659
13,"O=C(CCl)c1c(-c2ccccc2)[nH]c2ccccc12 [10-E05, 2-chloro-1-(2-phenyl-1H-indol-3-yl)ethan-1-one]",159.063
14,"CC(C)NC(=O)C(C#N)=Cc1cccc(O)c1 [8-A22, 2-cyano-3-(3-hydroxyphenyl)-N-(propan-2-yl)prop-2-enamide]",90.2905
15,"N#CC(=Cc1ccc(O)c(O)c1)C(=O)Nc1ccccc1F [8-B05, 2-cyano-3-(3,4-dihydroxyphenyl)-N-(2-fluorophenyl)prop-2-enamide]",94.9378
16,"C=CC(=O)NCc1noc2c1CC(C)(C)CC2 [2-L07, N-[(5,5-dimethyl-4,5,6,7-tetrahydro-1,2-benzoxazol-3-yl)methyl]prop-2-enamide]",121.149
17,"COc1cc(CC2CN(C(=O)C(C)Cl)C2)cc(OC)c1 (centres unmarked) [7-H07, 2-chloro-1-{3-[(3,5-dimethoxyphenyl)methyl]azetidin-1-yl}propan-1-one]",113.658
18,"Cc1cc(C(=O)CCl)c(C)n1-c1ccon1 [10-F06, 2-chloro-1-[2,5-dimethyl-1-(1,2-oxazol-3-yl)-1H-pyrrol-3-yl]ethan-1-one]",106.875
19,"COc1ccccc1N(CC(F)(F)F)C(=O)CCl [4-C18, 2-chloro-N-(2-methoxyphenyl)-N-(2,2,2-trifluoroethyl)acetamide]",123.487
20,"C=CC(=O)NCc1nnc2ccccn12 [1-H19, N-({[1,2,4]triazolo[4,3-a]pyridin-3-yl}methyl)prop-2-enamide]",111.473
21,"C=CC(=O)N[C@@H](CN(C)C)c1ccccc1 [2-M19, N-[(1R)-2-(dimethylamino)-1-phenylethyl]prop-2-enamide]",86.3359
22,"O=C(CCl)NCC(F)(F)c1cccnc1 [6-C21, 2-chloro-N-[2,2-difluoro-2-(pyridin-3-yl)ethyl]acetamide]",96.2927
23,"O=C(CCl)N1CCCCC1Cn1ccnn1 (centres unmarked) [5-E08, 2-chloro-1-{2-[(1H-1,2,3-triazol-1-yl)methyl]piperidin-1-yl}ethan-1-one]",93.6248
24,"C=CC(=O)NCc1cn2c(n1)CCCC2 [3-L20, N-({5H,6H,7H,8H-imidazo[1,2-a]pyridin-2-yl}methyl)prop-2-enamide]",103.439
25,"CC(Cl)C(=O)N1CCC(n2c(=O)[nH]c3ccccc32)CC1 (centres unmarked) [6-N05, 1-[1-(2-chloropropanoyl)piperidin-4-yl]-2,3-dihydro-1H-1,3-benzodiazol-2-one]",101.073
26,"CCOc1ccc(C=C(C#N)C(=O)Nc2nccs2)cc1 [9-C06, 2-cyano-3-(4-ethoxyphenyl)-N-(1,3-thiazol-2-yl)prop-2-enamide]",114.757
27,"O=C(CCl)N(Cc1nc(C2CCCCCC2)no1)C1CC1 [7-B16, 2-chloro-N-[(3-cycloheptyl-1,2,4-oxadiazol-5-yl)methyl]-N-cyclopropylacetamide]",78.179
28,"COCC(C)n1c(C)cc(C=C(C#N)C(=O)NS(C)(=O)=O)c1C (centres unmarked) [8-B04, 2-cyano-N-methanesulfonyl-3-[1-(1-methoxypropan-2-yl)-2,5-dimethyl-1H-pyrrol-3-yl]prop-2-enamide]",97.2614
29,"Cc1ccc(C(=O)C(C)Cl)cc1C (centres unmarked) [10-B20, 2-chloro-1-(3,4-dimethylphenyl)propan-1-one]",91.875
